# Experimental data as given in the supplement of paper PMC8728848.
# The other results are listed elsewhere or left out.
# B1: Morniga (Morus nigra) (protein)
# chain: MAGTSTNTQTTGTSQTVEVGLWGGPGGNAWDDGSYTGIREINLSHGDAIGAFSVIYDLNGQPFTGPTHPGNEPSFKTVKITLDFPNEFLVSVSGYTGVLPRLATGKDVIRSLTFKTNKKTYGPYGKEEGTPFSLPIENGLIVGFKGRSGFVVDAIGVHLS
# Experiments:
# Experiment in all cases: glycan array binding signal (z-score within array); higher = stronger binding
# Details in all cases: glycan notation: IUPAC condensed, linker removed
# [1] = biological target: Fuc(a1-2)Gal(b1-4)GlcNAc(b1-3)Gal(b1-4)GlcNAc(b1-3)Gal(b1-4)GlcNAc
# Method in brief: (§1)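 Arrays were curated from the Consortium for Functional Glycomics database, 3228 in total, and kept only where the protein sequence was available. Binding is expressed as a within-array Z-score. This score was averaged across arrays of the same protein sequence at different concentrations or buffers and across linkers, and negative values can be read as non-binding.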
# [2] = biological target: Fuc(a1-2)Gal(b1-4)GlcNAc(b1-3)GalNAc
# Method in brief: as §1
# [3] = biological target: Fuc(a1-2)Gal(b1-4)GlcNAc(b1-3)[Fuc(a1-2)Gal(b1-4)GlcNAc(b1-6)]GalNAc
# Method in brief: as §1
# [4] = biological target: Fuc(a1-2)Gal(b1-4)GlcNAc(b1-6)GalNAc
# Method in brief: as §1
# [5] = biological target: Fuc(a1-2)Gal(b1-4)GlcNAc6S
# Method in brief: as §1
# [6] = biological target: Fuc(a1-2)Gal(b1-4)[Fuc(a1-3)]GlcNAc
# Method in brief: as §1
# [7] = biological target: Fuc(a1-2)Gal(b1-4)[Fuc(a1-3)]GlcNAc(b1-2)Man(a1-3)[Fuc(a1-2)Gal(b1-4)[Fuc(a1-3)]GlcNAc(b1-2)Man(a1-6)]Man(b1-4)GlcNAc(b1-4)GlcNAc
# Method in brief: as §1
# [8] = biological target: Fuc(a1-2)Gal(b1-4)[Fuc(a1-3)]GlcNAc(b1-2)Man(a1-6)[Fuc(a1-2)Gal(b1-4)[Fuc(a1-3)]GlcNAc(b1-2)Man(a1-3)]Man(b1-4)GlcNAc(b1-4)[Fuc(a1-6)]GlcNAc
# Method in brief: as §1
# [9] = biological target: Fuc(a1-2)Gal(b1-4)[Fuc(a1-3)]GlcNAc(b1-2)[Fuc(a1-2)Gal(b1-4)[Fuc(a1-3)]GlcNAc(b1-4)]Man(a1-3)[Fuc(a1-2)Gal(b1-4)[Fuc(a1-3)]GlcNAc(b1-2)Man(a1-6)]Man(b1-4)GlcNAc(b1-4)GlcNAc
# Method in brief: as §1
# [10] = biological target: Fuc(a1-2)Gal(b1-4)[Fuc(a1-3)]GlcNAc(b1-3)Gal(b1-4)[Fuc(a1-3)]GlcNAc
# Method in brief: as §1
# [11] = biological target: Fuc(a1-2)Gal(b1-4)[Fuc(a1-3)]GlcNAc(b1-3)Gal(b1-4)[Fuc(a1-3)]GlcNAc(b1-3)Gal(b1-4)[Fuc(a1-3)]GlcNAc
# Method in brief: as §1
# [12] = biological target: Fuc(a1-2)Gal(b1-4)[Fuc(a1-3)]GlcNAc(b1-3)GalNAc
# Method in brief: as §1
# [13] = biological target: Fuc(a1-2)Gal(b1-4)[Fuc(a1-3)]GlcNAc(b1-3)[Neu5Ac(a2-6)Gal(b1-4)GlcNAc(b1-6)]Gal(b1-4)Glc
# Method in brief: as §1
# [14] = biological target: Fuc(a1-2)Gal6S(b1-3)GlcNAc
# Method in brief: as §1
# [15] = biological target: Fuc(a1-2)Gal6S(b1-3)GlcNAc6S
# Method in brief: as §1
# Fuc(a1-2)Gal6S(b1-4)Glc = biological target: Fuc(a1-2)Gal6S(b1-4)Glc
# Method in brief: as §1
# [16] = biological target: Fuc(a1-2)Gal6S(b1-4)Glc6S
# Method in brief: as §1
# [17] = biological target: Fuc(a1-2)Gal6S(b1-4)GlcNAc
# Method in brief: as §1
# Fuc(a1-2)[Gal(a1-3)]Gal = biological target: Fuc(a1-2)[Gal(a1-3)]Gal
# Method in brief: as §1
# [18] = biological target: Fuc(a1-2)[Gal(a1-3)]Gal(b1-3)GalNAc
# Method in brief: as §1
# [19] = biological target: Fuc(a1-2)[Gal(a1-3)]Gal(b1-3)GlcNAc
# Method in brief: as §1
# [20] = biological target: Fuc(a1-2)[Gal(a1-3)]Gal(b1-3)GlcNAc(b1-2)Man(a1-3)[Fuc(a1-2)[Gal(a1-3)]Gal(b1-3)GlcNAc(b1-2)Man(a1-6)]Man(b1-4)GlcNAc(b1-4)GlcNAc
# Method in brief: as §1
# [21] = biological target: Fuc(a1-2)[Gal(a1-3)]Gal(b1-3)GlcNAc(b1-2)Man(a1-3)[Fuc(a1-2)[Gal(a1-3)]Gal(b1-3)GlcNAc(b1-2)Man(a1-6)]Man(b1-4)GlcNAc(b1-4)[Fuc(a1-6)]GlcNAc
# Method in brief: as §1
# [22] = biological target: Fuc(a1-2)[Gal(a1-3)]Gal(b1-3)GlcNAc(b1-3)GalNAc
# Method in brief: as §1
# [23] = biological target: Fuc(a1-2)[Gal(a1-3)]Gal(b1-4)Glc
# Method in brief: as §1
# [24] = biological target: Fuc(a1-2)[Gal(a1-3)]Gal(b1-4)GlcNAc
# Method in brief: as §1
# [25] = biological target: Fuc(a1-2)[Gal(a1-3)]Gal(b1-4)GlcNAc(b1-2)Man(a1-3)[Fuc(a1-2)[Gal(a1-3)]Gal(b1-4)GlcNAc(b1-2)Man(a1-6)]Man(b1-4)GlcNAc(b1-4)GlcNAc
# Method in brief: as §1
# [26] = biological target: Fuc(a1-2)[Gal(a1-3)]Gal(b1-4)GlcNAc(b1-2)Man(a1-3)[Fuc(a1-2)[Gal(a1-3)]Gal(b1-4)GlcNAc(b1-2)Man(a1-6)]Man(b1-4)GlcNAc(b1-4)[Fuc(a1-6)]GlcNAc
# Method in brief: as §1
# [27] = biological target: Fuc(a1-2)[Gal(a1-3)]Gal(b1-4)GlcNAc(b1-3)GalNAc
# Method in brief: as §1
# [28] = biological target: Fuc(a1-2)[Gal(a1-3)]Gal(b1-4)GlcNAc(b1-6)GalNAc
# Method in brief: as §1
# [29] = biological target: Fuc(a1-2)[Gal(a1-3)]Gal(b1-4)[Fuc(a1-3)]Glc
# Method in brief: as §1
# [30] = biological target: Fuc(a1-2)[Gal(a1-3)]Gal(b1-4)[Fuc(a1-3)]GlcNAc
# Method in brief: as §1
# [31] = biological target: Fuc(a1-2)[Gal(a1-3)]Gal(b1-4)[Fuc(a1-3)]GlcNAc(b1-3)GalNAc
# Method in brief: as §1
# [32] = biological target: Fuc(a1-2)[Gal(a1-4)]Gal(b1-4)GlcNAc
# Method in brief: as §1
# [33] = biological target: Fuc(a1-2)[GalNAc(a1-3)]Gal
# Method in brief: as §1
# [34] = biological target: Fuc(a1-2)[GalNAc(a1-3)]Gal(b1-3)GalNAc(a1-3)[Fuc(a1-2)]Gal(b1-4)GlcNAc
# Method in brief: as §1
# [35] = biological target: Fuc(a1-2)[GalNAc(a1-3)]Gal(b1-3)GlcNAc
# Method in brief: as §1
# [36] = biological target: Fuc(a1-2)[GalNAc(a1-3)]Gal(b1-3)GlcNAc(b1-2)Man(a1-3)[Fuc(a1-2)[GalNAc(a1-3)]Gal(b1-3)GlcNAc(b1-2)Man(a1-6)]Man(b1-4)GlcNAc(b1-4)GlcNAc
# Method in brief: as §1
# [37] = biological target: Fuc(a1-2)[GalNAc(a1-3)]Gal(b1-3)GlcNAc(b1-2)Man(a1-3)[Fuc(a1-2)[GalNAc(a1-3)]Gal(b1-3)GlcNAc(b1-2)Man(a1-6)]Man(b1-4)GlcNAc(b1-4)[Fuc(a1-6)]GlcNAc
# Method in brief: as §1
# [38] = biological target: Fuc(a1-2)[GalNAc(a1-3)]Gal(b1-3)GlcNAc(b1-3)GalNAc
# Method in brief: as §1
# [39] = biological target: Fuc(a1-2)[GalNAc(a1-3)]Gal(b1-3)GlcNAc(b1-6)GalNAc
# Method in brief: as §1
# [40] = biological target: Fuc(a1-2)[GalNAc(a1-3)]Gal(b1-4)Glc
# Method in brief: as §1
# [41] = biological target: Fuc(a1-2)[GalNAc(a1-3)]Gal(b1-4)GlcNAc
# Method in brief: as §1
# [42] = biological target: Fuc(a1-2)[GalNAc(a1-3)]Gal(b1-4)GlcNAc(b1-2)Man(a1-3)[Fuc(a1-2)[GalNAc(a1-3)]Gal(b1-4)GlcNAc(b1-2)Man(a1-6)]Man(b1-4)GlcNAc(b1-4)GlcNAc
# Method in brief: as §1
# [43] = biological target: Fuc(a1-2)[GalNAc(a1-3)]Gal(b1-4)GlcNAc(b1-2)Man(a1-3)[Fuc(a1-2)[GalNAc(a1-3)]Gal(b1-4)GlcNAc(b1-2)Man(a1-6)]Man(b1-4)GlcNAc(b1-4)[Fuc(a1-6)]GlcNAc
# Method in brief: as §1
binder,measurement,setting,value
B1,glycan array binding signal (z-score),[1],-0.332
same,glycan array binding signal (z-score),[2],-0.331
same,glycan array binding signal (z-score),[3],-0.325
same,glycan array binding signal (z-score),[4],-0.329
same,glycan array binding signal (z-score),[5],-0.33
same,glycan array binding signal (z-score),[6],-0.334
same,glycan array binding signal (z-score),[7],-0.109
same,glycan array binding signal (z-score),[8],0.63
same,glycan array binding signal (z-score),[9],-0.28
same,glycan array binding signal (z-score),[10],-0.334
same,glycan array binding signal (z-score),[11],-0.329
same,glycan array binding signal (z-score),[12],-0.263
same,glycan array binding signal (z-score),[13],-0.329
same,glycan array binding signal (z-score),[14],-0.337
same,glycan array binding signal (z-score),[15],-0.295
same,glycan array binding signal (z-score),Fuc(a1-2)Gal6S(b1-4)Glc,-0.341
same,glycan array binding signal (z-score),[16],-0.33
same,glycan array binding signal (z-score),[17],-0.341
same,glycan array binding signal (z-score),Fuc(a1-2)[Gal(a1-3)]Gal,-0.332
same,glycan array binding signal (z-score),[18],-0.328
same,glycan array binding signal (z-score),[19],-0.332
same,glycan array binding signal (z-score),[20],-0.019
same,glycan array binding signal (z-score),[21],-0.257
same,glycan array binding signal (z-score),[22],-0.333
same,glycan array binding signal (z-score),[23],-0.342
same,glycan array binding signal (z-score),[24],-0.333
same,glycan array binding signal (z-score),[25],2.68
same,glycan array binding signal (z-score),[26],0.396
same,glycan array binding signal (z-score),[27],-0.335
same,glycan array binding signal (z-score),[28],-0.339
same,glycan array binding signal (z-score),[29],-0.338
same,glycan array binding signal (z-score),[30],-0.324
same,glycan array binding signal (z-score),[31],-0.329
same,glycan array binding signal (z-score),[32],-0.339
same,glycan array binding signal (z-score),[33],-0.334
same,glycan array binding signal (z-score),[34],-0.335
same,glycan array binding signal (z-score),[35],-0.333
same,glycan array binding signal (z-score),[36],-0.118
same,glycan array binding signal (z-score),[37],-0.241
same,glycan array binding signal (z-score),[38],-0.321
same,glycan array binding signal (z-score),[39],-0.331
same,glycan array binding signal (z-score),[40],-0.34
same,glycan array binding signal (z-score),[41],-0.338
same,glycan array binding signal (z-score),[42],1.79
same,glycan array binding signal (z-score),[43],0.138
